This note sets out measurements from PubChem BioAssay AID360 (National Center for Advancing Translational Sciences (NCATS), 2006).

Screen size: about 48,000 compounds; about 550 (1.1%) were called active. Inconclusive results (about 4%) are left out. Cut-off read from the data, not from the text of the source: active = potency below about 15 µM; inconclusive = mostly about 16 µM to 33 µM; inactive = weaker than that. The list shows a part of the results. A value given as a limit tells only on which side of the number the result lay.
Potency is the fitted concentration of half-maximal effect.

Chain of UniProt P04062 (P04062 whole entry, looked up): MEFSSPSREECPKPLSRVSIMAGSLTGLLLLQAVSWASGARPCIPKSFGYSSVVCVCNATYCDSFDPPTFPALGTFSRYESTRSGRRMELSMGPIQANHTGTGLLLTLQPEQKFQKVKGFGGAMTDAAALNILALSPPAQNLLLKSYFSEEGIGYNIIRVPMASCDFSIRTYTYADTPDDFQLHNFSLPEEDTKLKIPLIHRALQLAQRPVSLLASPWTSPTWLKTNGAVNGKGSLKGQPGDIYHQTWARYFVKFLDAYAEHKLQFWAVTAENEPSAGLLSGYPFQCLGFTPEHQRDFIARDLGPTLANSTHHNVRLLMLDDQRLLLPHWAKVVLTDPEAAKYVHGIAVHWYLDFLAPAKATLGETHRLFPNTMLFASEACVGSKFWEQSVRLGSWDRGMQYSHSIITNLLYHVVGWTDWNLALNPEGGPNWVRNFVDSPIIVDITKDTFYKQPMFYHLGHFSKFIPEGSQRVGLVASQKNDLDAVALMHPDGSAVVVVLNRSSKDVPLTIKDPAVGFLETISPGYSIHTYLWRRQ

The experiment deals with Lysosomal acid glucosylceramidase (Homo sapiens) (UniProt P04062). In words: Glucocerebrosidase.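 Note: the screen sought inhibitors.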 The following applies: purified enzyme, resorufin glucoside fluorescence (screen aimed at inhibitors), 20 min. From the text:
NCGC Assay Overview: Beta-glucocerebrosidase catalyzes the hydrolysis of beta-glucocerebroside to glucose and ceramide. The inherited deficiency of beta-glucocerebrosidase results in Gaucher disease, which is characterized by a wide variety of symptoms including hepatosplenomegaly, anemia, thrombocytopenia, bony lesions and bone marrow infiltration with characteristic storage cells, known as Gaucher cells. There are also forms of the disorder affecting the central nervous system. Patients with the same genotypes can manifest with diverse clinical presentations and it is believed that improper folding and trafficking of beta-glucocerbrosidase may contribute to the phenotypes observed. Low molecular weight molecules, acting as chaperones, may potentially restore trafficking of misfolded beta-glucocerebrosidase from the endoplasmic reticulum to the lysosomes, thereby enhancing functional lysosomal beta-glucocerebrosidase activity. Using normal beta-glucocerebrosidase, an assay was developed to screen for small molecule inhibitors that could potentially act as molecular chaperones on the mutant forms [developed with NIH investigator Dr. Ellen Sidransky's laboratory]. Two pro-fluorescent substrates were chosen for two screens against a small molecule library. One beta-glucocerebrosidase assay used Resorufin beta-D-Glucopyranoside (Marker Gene Technology Inc.), generating a red fluorescent product. The second assay used Fluorescein di-beta-D-Glucopyranoside, generating a blue fluorescent product. […] The IC50 values of Conduritol B Epoxide, a known glucocerebrosidase inhibitor, were determined to be 87.5 uM and 117 uM, respectively. The use of two difference pro-fluorescent substrates in the screens helped to eliminate false positives. All compounds were screened in a titration series resulting in AC50s (e.g., IC50s or EC50s).
NCGC Assay Protocol Summary: Both enzyme and substrate were diluted in buffer composed of 50mM citric acid/KH2PO4, 10mM sodium taurocholate and 0.01% tween-20 at pH 5.9. The final concentration of the enzyme was 0.2 nM in both assays. The compound library was titrated in 7 to 15 concentrations for the primary screens with a final concentration ranging from 0.6 nM to 50 uM. This particular assay protocol is for the "red" substrate, and it was performed in 1536-well plate format as follows: Red fluorescence substrate assay: 2 uL enzyme 23 nL compound 1 uL substrate (final concentration of 30 uM) Incubate at room temperature (RT) for 20 minutes Read the plate in Viewlux plate reader (Ex=548(7) and Em=600(10)).
Turning to `Cc1cc(OCc2nn[nH]n2)c2c3c(c(=O)oc2c1)CCC3`, the Potency is inactive: > 76.9 µM.

Regarding `CC1(O)C[C@]2(C)N(O)C3CCCC[C@@H]3N2O1` (stereo partly drawn), the Potency is inactive: > 76.9 µM.

With `CC(C)C(=O)c1cn(Cc2ccccc2C#N)c2ccccc12`, the Potency was inactive: > 76.9 µM.

Consider `CCCCn1c(NC(=O)c2ccco2)c(C(=O)OCC)c2nc3ccccc3nc21`, for which the Potency was inactive: > 76.9 µM.

For `CCCCc1nc2ccccc2c(=O)n1-c1ccc(O)cc1`, the Potency is inactive: > 76.9 µM.

In the case of `CCOC(=O)CN1C(=O)C2(C(C#N)=C(N)Oc3ccccc32)C(C(=O)OC)=C1C` (stereo not drawn), the Potency is inactive: > 76.9 µM.

As to `O=c1[nH]c(=O)n(CCC2=CCCCC2)c(O)c1C=NCCCn1ccnc1`, the Potency is inactive: > 76.9 µM.

On to `Cc1cccc(N2CCc3c2nc2ccccc2c3N)c1`, for which the Potency is inactive: > 76.9 µM.

Turning to `O=C(Cn1cnc2ccccc2c1=O)NCC(=O)N1CCC2(CC1)OCCO2`, the Potency was inactive: > 76.9 µM.

Regarding `CC(=O)Nc1ccccc1OC(=O)N(C)C`, the Potency was inactive: > 76.9 µM.

As for `Cc1ccc(C2CC(=O)C(C=NCCN3CCN(C(=O)Cc4ccccc4)CC3)=C(O)C2)cc1` (stereo not drawn), the Potency is inactive: > 76.9 µM.

`Cc1cccnc1NC1=NCC(C)S1` (stereo not drawn): the Potency was inactive: > 76.9 µM.

Consider `CN1CCC(N2CC3CC(C2)c2cccc(=O)n2C3)CC1` (stereo not drawn), for which the Potency is inactive: > 76.9 µM.

On to `O=C(COc1ccccc1)N1CCN(CC2CC3C=CC2C3)CC1` (stereo not drawn), for which the Potency was inactive: > 76.9 µM.

`CN1CCC(n2nccc2N)CC1`: the Potency is inactive: > 76.9 µM.

As to `Cc1ccccc1N1C(=O)CC(=O)NC1=O`, the Potency is inactive: > 76.9 µM.

On to `O=C(c1cc(-c2cccnc2)nc2ccccc12)N1CCC2(CC1)OCCO2`, for which the Potency is inactive: > 76.9 µM.

Turning to `CC1=CC(=O)C2=C(C)CC(O)C3C(C)C(=O)OC3C12` (stereo not drawn), the Potency is inactive: > 76.9 µM.

Turning to `COc1ccc2c(c1)CC1(CN2C)C(=O)NC(=O)N(CCc2ccccc2)C1=O` (stereo not drawn), the Potency was inactive: > 76.9 µM.

In the case of `OCCN1C2CCC1CC(O)(c1ccc(F)cc1)C2` (stereo not drawn), the Potency is inactive: > 76.9 µM.

For `CCOC(=O)c1c(-c2ccc(OC)cc2)oc2ccc(OC(=O)N(C)C)cc12`, the Potency was inactive: > 76.9 µM.

As to `O=C1c2ccccc2C2(c3ccc(Cl)cc3)NCCN12` (stereo not drawn), the Potency was inactive: > 76.9 µM.

Take `CC1CN(O)C2CCc3nonc3C12O` (stereo not drawn): the Potency was inactive: > 76.9 µM.

As for `Cc1ccc(Cn2nnnc2CN2CCC(n3nnc4cc(C(F)(F)F)ccc43)CC2)cc1`, the Potency was inactive: > 76.9 µM.

Turning to `CCCCn1c(O)c(C(C)=NC(C)c2ccccc2)c(=O)[nH]c1=O` (stereo not drawn), the Potency was inactive: > 76.9 µM.

Regarding `Cn1cc(C(=O)N2CCC3(CC2)OCCO3)c2c3ccccc3n(C)c2c1=O`, the Potency is inactive: > 76.9 µM.

Take `O=C(Cc1ccccc1)OC(COCc1ccccc1)CN1CCOCC1` (stereo not drawn): the Potency was inactive: > 76.9 µM.

Regarding `N=Cc1c(O)n(-c2cccc(Cl)c2)c(=O)[nH]c1=O`, the Potency was inactive: > 76.9 µM.

As to `Cc1cc(N)n(C2CCN(C)CC2)n1`, the Potency is inactive: > 76.9 µM.

As for `Cc1ccc(Cl)cc1N1CCN(CCN)CC1`, the Potency result was “inactive”.

On to `CCC(C)N1C(=O)NC(=O)C2(Cc3cc(C)ccc3N(C)C2)C1=O` (stereo not drawn), for which the Potency was inactive: > 76.9 µM.

On to `C=CCN1C(=O)NC(=O)C(Cc2ccc(OC)c(OC)c2)C1=O` (stereo not drawn), for which the Potency was inactive: > 76.9 µM.

With `Cc1ccc2c(c1)C1CN(C)CCC1N2C(=O)c1ccco1` (stereo not drawn), the Potency was inactive: > 76.9 µM.

Consider `CCC(C)NC(=O)c1c(N)n(Cc2ccc3c(c2)OCO3)c2nc3ccccc3nc12` (stereo not drawn), for which the Potency was active: 15.1 µM.

Turning to `O=C(Cc1cccs1)N1CCC2(CC1)OCCO2`, the Potency is inactive: > 76.9 µM.

For the compound `O=C(c1ccc2nc3ccc(Cl)cc3c(=O)n2c1)N1CCC2(CC1)OCCO2`, the Potency is inactive: > 76.9 µM.

`O=C(c1ccc2c(c1)ncn2C1CCCCC1)N1CCC2(CC1)OCCO2`: the Potency was inactive: > 76.9 µM.

As for `Cn1c(O)c(C=NC2C(=O)C3(C)CCC2C3(C)C)c(=O)n(C)c1=O` (stereo not drawn), the Potency was inactive: > 76.9 µM.

As to `COc1ccccc1-n1c(O)c(C=Nc2c(C)n(C)n(-c3ccccc3)c2=O)c(=O)[nH]c1=O`, the Potency was inactive: > 76.9 µM.

On to `c1ccc2sc(C3CCCNC3)nc2c1` (stereo not drawn), for which the Potency is inactive: > 76.9 µM.

Take `CC1(C)CC(=O)C(C=NCCN2CCN(C(=O)Cc3ccc(Cl)cc3)CC2)=C(O)C1`: the Potency was inactive: > 76.9 µM.

On to `O=c1[nH]c(=O)n(CCc2ccc(F)cc2)c(O)c1C=NCCCN1CCOCC1`, for which the Potency was inactive: > 76.9 µM.

`CCC(=O)Nc1cc(C(=O)N2CCC3(CC2)OCCO3)ccc1S(=O)(=O)c1ccc(C)cc1`: the Potency was inactive: > 76.9 µM.

Take `Cc1ccc2nc(N3CCN(C)CC3)[nH]c2c1`: the Potency is inactive: > 76.9 µM.

Turning to `c1cc2n(c1)-c1c(ccc3c1OCO3)CNC2c1ccc2c(c1)OCO2` (stereo not drawn), the Potency is inactive: > 76.9 µM.

Consider `O=c1[nH]c(N2CCN(Cc3ccc4c(c3)OCO4)CC2)nc2c1CCC2`, for which the Potency is inactive: > 76.9 µM.

Take `Fc1cccc(F)c1CN1CCN(Cc2c(F)cccc2F)CC1`: the Potency is inactive: > 76.9 µM.

Turning to `CCOC(=O)c1cn2nc(OP(=S)(OCC)OCC)cc2nc1C`, the Potency was inactive: > 76.9 µM.
